Assay results reported in PubChem BioAssay AID493208 (National Center for Advancing Translational Sciences (NCATS), 2011).
The campaign covered roughly 44,000 compounds. About 340 (0.77%) were called active. About 5% were inconclusive and are not listed. Calls come from the whole dose curve; as a rule, active = well fitted inhibition curve with a large enough effect; inconclusive = small, poorly fitted or top-dose-only effect; inactive = flat fitted curve, though single readings scatter. Some of the results follow.

Experiment: Acumen qHTS Assay for Inhibitors of the mTORC1 Signaling Pathway in MEF (Tsc2-/-, p53-/-) Cells: Sytravon;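 note: plate controls were DMSO for no effect and rapamycin for full effect; nearly all actives have a fitted effect of over 50% in size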
Conditions: phospho-rpS6 immunofluorescence/PI, 24 h; series mostly up to 38.3 µM; activity change, negative = inhibition: at the top concentration
Outline: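 Cell-based qHTS: Tsc2-/- p53-/- MEF, 24 h cpd, 37 °C; fix/perm, anti-phospho-S6 Alexa-488 + PI; Acumen 488 nm scan; pS6/PI ratio, % positive cells; rapamycin 7.5 nM = inhibition ref; PI count = viability.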

Activity change, negative = inhibition, inactive:
CCOC(=O)c1c(NC(=O)c2ccc(S(=O)(=O)N(CC)CC)cc2)sc2c1CCCCC2 -4%
O=C(Nc1cccc(C(F)(F)F)c1)Nc1ccc2snnc2c1 -21.1%
CCc1nn(CC(=O)NCCOC)c(=O)c2cc3cc(F)ccc3n12 -2.46%
Cc1cc(S(=O)(=O)Nc2ccc(O)c(Sc3nc4ccccc4s3)c2)ccc1Cl -7.38%
CCN(CC)C(=O)CSc1nc2cc3c(cc2c(=O)n1CCCC(=O)NCc1ccc(OC)cc1)OCO3 -8.72%
Cc1ccc(CCNC(=O)CN(c2ccc(C(C)C)cc2)S(=O)(=O)c2c(C)nn(C)c2C)cc1 1.69%
CCn1c(SCC(=O)Nc2c(C)cccc2C)nnc1-c1nonc1NC(C)=O -0.775%
O=C(NCCC1=CCCCC1)c1ccc2c(c1)N(Cc1ccccc1)C(=O)c1ccccc1S2=O (stereo not given) 1.69%
Cc1ccc(C(=O)N2CCCCC2CCN2CCCCC2)cc1 (stereo not given) 5.46%
COc1ccc(-c2csc(-c3c(N)c(C(=O)c4ccccc4)n4ccccc34)n2)cc1OC -4.11%
CCS(=O)(=O)c1cccc(C(=O)Nc2ccc(-c3nc4ccccc4s3)c(O)c2)c1 -6.54%
CCN(CCCNC(=O)c1nn(-c2ccc(OC)c(Cl)c2)c(=O)c2c1c1ccccc1n2C)c1ccccc1 -1.72%
Cc1ccc(CN2CCN(C3CCN(S(=O)(=O)N(C)C)CC3)C(=O)C2=O)cc1 -2.54%
CC1CCN(C(=O)Cn2c(SCC(=O)Nc3ccc(F)cc3)nc3ccccc32)CC1 0%
COc1ccc(OC)c(CNC(=O)CSc2c3c(nc4cc(Cl)ccc24)CCCC3)c1 0.626%
CCN(Cc1ccccc1)C(=O)Cn1c(=O)n(-c2cccc(C)c2)c(=O)c2c1c1cc(OC)ccc1n2C 6.85%
CCOC(=O)C1=C(CN2CCN(C)CC2)NC(=O)NC1c1ccc(F)cc1 (stereo not given) -0.593%
CC(C)c1ccc(OCC(=O)NCC(c2ccc(Cl)cc2)N2CCOCC2)cc1 (stereo not given) -14.1%
CC(C)NC(=O)C1CCN(C(=O)c2cnn(-c3ccccc3)c2-n2cccc2)CC1 1.44%
COc1ccc(N2C(N)=C(C#N)C(c3cc(CN4CCOCC4)cs3)C3=C2CCCC3=O)cc1 (stereo not given) -1.48%
Cc1nc2c(C(=O)NCCc3ccc(Cl)cc3)cnn2c(C)c1Cc1ccc(F)cc1 -2.72%
Cc1ccc(NS(=O)(=O)c2ccc3c(c2)C(C(C)C)C(=O)N3)cc1C (stereo not given) -1.12%
COc1ccc(NS(=O)(=O)c2ccc(-n3cccn3)cc2)cc1OC -17.5%
CNc1nc2c(c(=O)n(C)c(=O)n2C)n1CC(O)COc1ccc(OC)cc1 (stereo not given) 1.38%
CCCSc1nc2sc3c(c2c(=O)n1-c1ccc(C)c(Cl)c1)CCN(C(C)=O)C3 -20.4%
CN(C(=O)c1cc2nc(-c3ccc4c(c3)OCO4)cc(C(F)(F)F)n2n1)c1ccc(OC(F)(F)F)cc1 -2.59%
Cn1nc(C(=O)NCCc2ccc(Cl)cc2)c2c1-c1ccccc1SC2 -1.06%
CSc1nnc2n(-c3cccc(C)c3)c(=O)c3c4c(sc3n12)CCCC4 -0.694%
COc1ccc(S(=O)(=O)c2c(O)c(C)cc(NC(=O)c3ccccc3)c2C(C)C)cc1 -0.912%
COc1ccccc1N1CCN(C(=O)c2ccc(Nc3nc4ccccc4n4nnnc34)cc2)CC1 -0.703%
CCn1c(=O)n(CC)c2cc(N3CCCC3)c(NC(=O)Nc3cc(C)cc(C)c3)cc21 -12.8%
O=C(Nc1ccccc1F)c1oc2ccccc2c1NC(=O)c1c(F)cccc1F -29.7%
Cc1cccn2c(=O)cc(COc3cccc(NC(=O)c4cccc(Cl)c4)c3)nc12 0.628%
Cc1cccc(-c2nnc(SCC(=O)N3CCCCC3)o2)c1 -2.12%
COc1cc(-c2nc(C(N)=O)c3c(n2)n(-c2cccc(C)c2)c(=O)n3C)cc(OC)c1OC 1.28%
CCn1c(CN2CCCCC2)nc2cc(NC(=O)c3cccc([N+](=O)[O-])c3)ccc21 1.76%
Cc1c(C(=O)Nc2cccc(-c3nc4ccccc4s3)c2)oc2ccc(F)cc12 0.992%
Cc1ccc(CNC(=O)c2nn(C)c3c2CSc2ccc(C)cc2-3)cc1 3.39%
Cc1ccc(CCNC(=O)CSCc2nc(-c3ccc(C)cc3)oc2C)cc1 -15.8%
COC(=O)c1ccccc1NC(=O)c1ccc(=O)n(Cc2cccc(C)c2)c1 1.27%
N#Cc1cccc(NC(=O)C2CCN(c3nc(-c4ccc(Cl)cc4)no3)CC2)c1 0%
CCOc1ccc(-c2nnc(SCC(=O)Nc3cc(C)ccc3OC)o2)cc1 -19%
CC(C)c1ccc(NC(=O)Cn2c3ncccc3c(=O)n2-c2ccccc2)cc1 0.913%
Cc1ccccc1NC(=O)C1CCN(S(=O)(=O)c2c(C)noc2/C=C/c2ccco2)CC1 7.34%
COc1ccc(C(=O)NCc2ccc3c(c2)CCN3C(C)=O)c(OC)c1 -3.86%
CCC(=O)N1CCc2cc(CNC(=O)c3cccc(N(C)C)c3)ccc21 -0.183%
COc1ccc(NC(=O)C2CCCN(c3ncnc4onc(C)c34)C2)cc1OC (stereo not given) 0.0765%
CCC(=O)OC1=C(C(C)=O)N(Cc2ccccc2)S(=O)(=O)c2ccccc21 -0.138%
Cc1ccc(Cn2c(SCc3ccc(C(=O)N4CCCCC4)cc3)nc3ccncc32)cc1 -12.3%
CCc1ccccc1N1C(=O)CN(S(=O)(=O)CC)CC1(C)C(=O)NC1CCCCC1 (stereo not given) -0.463%
Cc1ccc(-c2c3c(=O)n(C)c(=O)n(C)c3c3n2-c2ccccc2NC3c2ccc(C)cc2O)cc1 (stereo not given) -13.4%
CCOc1ccc(OCC)c(NC(=O)c2nnn(CC(=O)Nc3cc(Cl)ccc3OC)c2N)c1 -17.1%
COc1ccc(-c2cc(C(=O)N3CCCCC3C)no2)cc1OC (stereo not given) 3.4%
O=C(COc1ccccc1)Nc1nnc(S(=O)(=O)Nc2ccccc2)s1 -13.2%
Cc1ccc(Cl)cc1N1CCN(S(=O)(=O)c2cn(C)c(C)n2)CC1 1.05%
CCOc1ccccc1C1C(C(=O)Nc2ccccc2)=C(C)Nc2nc(SCC(=O)c3ccc(C)cc3)nn21 (stereo not given) -2.8%
CC1CCCCN1CCCNC(=O)CN1C(=O)c2cccnc2Oc2ccc(Cl)cc21 (stereo not given) 0.989%
COc1ccc(C(=O)c2sc3nc4c(c(C(F)(F)F)c3c2N)CN(C(C)=O)CC4)cc1OC 2.1%
CN(C(=O)CSc1nc(-c2ccccc2)no1)c1ccc(F)cc1 -3.63%
CCOc1ccccc1NC(=O)Nc1nnc(N2CCCC(C)C2)s1 (stereo not given) -7.07%
